# Results as given in PMC9911399, “Two distinct binding modes provide the RNA-binding protein RbFox with extraordinary sequence specificity”.
# Positions count from the first letter of the chain named. Some of the results follow.
# T1: RBFOX1 RRM RbFoxmut (Fox-RRM*) (Homo sapiens, UniProt Q9NWB1 109-208, R118D;E147R;N151S;E152T)
# T1 sequence: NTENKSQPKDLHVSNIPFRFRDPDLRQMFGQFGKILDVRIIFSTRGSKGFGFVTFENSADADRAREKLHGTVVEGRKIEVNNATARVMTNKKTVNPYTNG
# B1: CUCACGU (DNA:RNA)
# RNA: GGGAGACCGGAAUUCAGAUUGUCCCUCACGUUUAAAUCCCGUCGUAGCCACCA
# DNA 1: CAATCTGAATTCCGGTCTCCC
# DNA 2: TGGTGGCTACGACGGGATT
# B2: AAAUAUA (DNA:RNA)
# RNA: GGGAGACCGGAAUUCAGAUUGUCCAAAUAUAUUAAAUCCCGUCGUAGCCACCA
# DNA 1: CAATCTGAATTCCGGTCTCCC
# DNA 2: TGGTGGCTACGACGGGATT
# B3: AGGUAGC (DNA:RNA)
# RNA: B2 RNA with A26G, A27G, U30G, A31C
# DNA 1: CAATCTGAATTCCGGTCTCCC
# DNA 2: TGGTGGCTACGACGGGATT
# B4: ACAGUUG (DNA:RNA)
# RNA: B2 RNA with A26C, U28G, A29U, A31G
# DNA 1: CAATCTGAATTCCGGTCTCCC
# DNA 2: TGGTGGCTACGACGGGATT
# B5: UAAGGUG (DNA:RNA)
# RNA: B2 RNA with A25U, U28G, A29G, A31G
# DNA 1: CAATCTGAATTCCGGTCTCCC
# DNA 2: TGGTGGCTACGACGGGATT
# B6: UGAUAGC (DNA:RNA)
# RNA: B2 RNA with A25U, A26G, U30G, A31C
# DNA 1: CAATCTGAATTCCGGTCTCCC
# DNA 2: TGGTGGCTACGACGGGATT
# B7: GGCGACA (DNA:RNA)
# RNA: B2 RNA with A25G, A26G, A27C, U28G, U30C
# DNA 1: CAATCTGAATTCCGGTCTCCC
# DNA 2: TGGTGGCTACGACGGGATT
# B8: CCGCUUG (DNA:RNA)
# RNA: B2 RNA with A25C, A26C, A27G, U28C, A29U, A31G
# DNA 1: CAATCTGAATTCCGGTCTCCC
# DNA 2: TGGTGGCTACGACGGGATT
# B9: AGACCAC (DNA:RNA)
# RNA: B2 RNA with A26G, U28C, A29C, U30A, A31C
# DNA 1: CAATCTGAATTCCGGTCTCCC
# DNA 2: TGGTGGCTACGACGGGATT
# B10: UGGGACG (DNA:RNA)
# RNA: B2 RNA with A25U, A26G, A27G, U28G, U30C, A31G
# DNA 1: CAATCTGAATTCCGGTCTCCC
# DNA 2: TGGTGGCTACGACGGGATT
# B11: AGAGGUC (DNA:RNA)
# RNA: B2 RNA with A26G, U28G, A29G, A31C
# DNA 1: CAATCTGAATTCCGGTCTCCC
# DNA 2: TGGTGGCTACGACGGGATT
# B12: CGAAUCC (DNA:RNA)
# RNA: B1 RNA with U26G, C27A, C29U, G30C, U31C
# DNA 1: CAATCTGAATTCCGGTCTCCC
# DNA 2: TGGTGGCTACGACGGGATT
# B13: CUAUUGC (DNA:RNA)
# RNA: B1 RNA with C27A, A28U, C29U, U31C
# DNA 1: CAATCTGAATTCCGGTCTCCC
# DNA 2: TGGTGGCTACGACGGGATT
# B14: AGGUGGC (DNA:RNA)
# RNA: B2 RNA with A26G, A27G, A29G, U30G, A31C
# DNA 1: CAATCTGAATTCCGGTCTCCC
# DNA 2: TGGTGGCTACGACGGGATT
# B15: CUCUCUC (DNA:RNA)
# RNA: B1 RNA with A28U, G30U, U31C
# DNA 1: CAATCTGAATTCCGGTCTCCC
# DNA 2: TGGTGGCTACGACGGGATT
# B16: UAUUCUC (DNA:RNA)
# RNA: B2 RNA with A25U, A27U, A29C, A31C
# DNA 1: CAATCTGAATTCCGGTCTCCC
# DNA 2: TGGTGGCTACGACGGGATT
# B17: AGAAUUG (DNA:RNA)
# RNA: B2 RNA with A26G, U28A, A29U, A31G
# DNA 1: CAATCTGAATTCCGGTCTCCC
# DNA 2: TGGTGGCTACGACGGGATT
# B18: GAGGCAC (DNA:RNA)
# RNA: B2 RNA with A25G, A27G, U28G, A29C, U30A, A31C
# DNA 1: CAATCTGAATTCCGGTCTCCC
# DNA 2: TGGTGGCTACGACGGGATT
# B19: GGAUAAA (DNA:RNA)
# RNA: B2 RNA with A25G, A26G, U30A
# DNA 1: CAATCTGAATTCCGGTCTCCC
# DNA 2: TGGTGGCTACGACGGGATT
# B20: CGCAAAA (DNA:RNA)
# RNA: B1 RNA with U26G, C29A, G30A, U31A
# DNA 1: CAATCTGAATTCCGGTCTCCC
# DNA 2: TGGTGGCTACGACGGGATT
# Molecular target: T1, RBFOX1 RRM RbFoxmut (Fox-RRM*)
# Assay: EMSA; HiTS-Eq, 1 nM pool, 10 min; buffer printed only for the single-RNA assays: 10 mM Tris pH 7.5, 150 mM NaCl, 3.4 mM EDTA, 0.001% NP-40, 30 C
# Settings: tags: His6 N-terminal (pET28a); label: 5' 32P
# In short: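 Relative association constants, normalised to the cognate motif, were derived by comparing read counts of each RNA species with those of the control reaction. The RNA sequenced was the free fraction, separated by 8% native PAGE after a 10 min equilibration in 50 µL of 1 nM 5′-radiolabelled RNA (7 randomized nucleotides) with increasing concentrations of purified wild-type or mutant RbFox RRM.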
row,Binder,binding signal
1,B1,0.108 KA relative to UGCAUGU
2,B2,0.153 KA relative to UGCAUGU
3,B3,0.114 KA relative to UGCAUGU
4,B4,0.116 KA relative to UGCAUGU
5,B5,0.0953 KA relative to UGCAUGU
6,B6,0.0858 KA relative to UGCAUGU
7,B7,0.0827 KA relative to UGCAUGU
8,B8,0.261 KA relative to UGCAUGU
9,B9,0.0728 KA relative to UGCAUGU
10,B10,0.107 KA relative to UGCAUGU
11,B11,0.108 KA relative to UGCAUGU
12,B12,0.235 KA relative to UGCAUGU
13,B13,0.125 KA relative to UGCAUGU
14,B14,0.135 KA relative to UGCAUGU
15,B15,0.0481 KA relative to UGCAUGU
16,B16,0.0952 KA relative to UGCAUGU
17,B17,0.129 KA relative to UGCAUGU
18,B18,0.0688 KA relative to UGCAUGU
19,B19,0.086 KA relative to UGCAUGU
20,B20,0.0997 KA relative to UGCAUGU
